Values joined by “and” are separate entries in the source; they are usually repeats but may differ in a detail not shown here. Equal values may be shown once. About 120 (0.75%) of roughly 16,000 compounds were called active. Not shown: some 4% with an inconclusive outcome. The call rests on the fitted dose curve; in most records, active means well fitted inhibition curve with a large enough effect; inconclusive means small, poorly fitted or top-dose-only effect; inactive means no such curve, though single readings can be large or run the other way. This is one part of the list. The source holds several records for some structures; these can differ, active in one and inactive in another.
These compounds were tested against Rap guanine nucleotide exchange factor 3 (Homo sapiens) (UniProt O95398) (assay: Validation qHTS for antagonist of cAMP-regulated guanine nucleotide exchange factor 3 (EPAC1)). Settings: EPAC1 Rap1B-BODIPY-GDP exchange, fluorescence; series mostly up to 150 µM; activity change, negative = inhibition: at the top concentration.
UniProt O95398, sequence (O95398 whole entry, looked up): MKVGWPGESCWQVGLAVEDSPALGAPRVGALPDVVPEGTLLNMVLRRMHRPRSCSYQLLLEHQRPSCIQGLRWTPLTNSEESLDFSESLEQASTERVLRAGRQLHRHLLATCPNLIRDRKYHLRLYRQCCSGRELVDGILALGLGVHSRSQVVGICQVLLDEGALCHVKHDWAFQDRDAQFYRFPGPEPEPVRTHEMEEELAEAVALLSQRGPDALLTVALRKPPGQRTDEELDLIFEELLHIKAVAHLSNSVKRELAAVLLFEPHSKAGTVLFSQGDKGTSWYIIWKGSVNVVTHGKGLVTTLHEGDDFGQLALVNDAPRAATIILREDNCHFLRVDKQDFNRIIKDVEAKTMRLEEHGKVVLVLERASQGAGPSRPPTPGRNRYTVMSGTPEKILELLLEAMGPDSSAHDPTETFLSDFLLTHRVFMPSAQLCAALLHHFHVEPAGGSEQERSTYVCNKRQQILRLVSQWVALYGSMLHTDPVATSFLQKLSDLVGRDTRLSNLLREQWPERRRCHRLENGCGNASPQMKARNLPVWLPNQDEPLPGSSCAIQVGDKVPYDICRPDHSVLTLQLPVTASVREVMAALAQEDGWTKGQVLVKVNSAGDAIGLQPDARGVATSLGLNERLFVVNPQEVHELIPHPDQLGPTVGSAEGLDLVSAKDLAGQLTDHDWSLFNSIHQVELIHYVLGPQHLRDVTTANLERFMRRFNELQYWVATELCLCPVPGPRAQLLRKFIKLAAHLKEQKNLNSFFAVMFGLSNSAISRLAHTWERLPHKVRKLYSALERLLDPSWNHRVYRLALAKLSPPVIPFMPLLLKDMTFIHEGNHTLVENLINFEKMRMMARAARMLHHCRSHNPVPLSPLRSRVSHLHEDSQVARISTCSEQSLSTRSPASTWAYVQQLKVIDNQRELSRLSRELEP
Procedure, shortened: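 EPAC1 (100 nM) mixed with 250 nM RAP1B-BODIPY-GDP and 50 uM GDP; compounds in concentration series, 5 min at room temperature. Fluorescence (ex 480/em 540 nm) read every 5 min for 30 min; normalized to ATA control and DMSO.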
`O=c1oc2c(O)c(O)cc3c(=O)oc4c(O)c(O)cc1c4c23` was tested, and the Potency was “inactive and active: 25.1 µM”. For `O=C1CC2(CCCC2)CC(=O)N1CCCCNC[C@H]1COc2ccccc2O1`, the “activity change, negative = inhibition” value was inactive: 5.46%. With `c1ccc(-c2ccc(N3CCCC4(CCNCC4)C3)cc2)cc1` the “activity change, negative = inhibition” value was inactive: 12.4%. For `COC(=O)c1ccccc1NS(C)(=O)=O`, the “activity change, negative = inhibition” value was inactive: 21%. `NC(N)=NC(=O)c1nc(Cl)c(N)nc1N` was tested, and the activity change, negative = inhibition was “inactive”. For `Cc1noc(C)c1C(=O)N1CCC2(CC1)CN(c1cccc(-c3ccccc3)c1)C2`, the “activity change, negative = inhibition” value was inactive: 3.65%. In the case of `Cc1noc(C)c1-c1ccc2ncnc(N3CCOCC3)c2c1`, the “activity change, negative = inhibition” value is reported as inactive: 17.9%. `O=c1c(-c2ccc(F)cc2)nc2cncnc2n1C1CC1` was tested, and the “activity change, negative = inhibition” value was inactive: 13.4%. `CN(C)c1ncc2nc(-c3cccs3)c(=O)n(CCC#N)c2n1` was tested, and the “activity change, negative = inhibition” value was inactive: 20.7%. With `COc1ccc(CN2CC[C@H]3C=CC[C@@H](C(=O)N4CCOCC4)[C@H]3C2=O)cc1OC` the “activity change, negative = inhibition” value was inactive: 10%. `CO[C@@H]1[C@@H](O[C@@H]2O[C@H](C)[C@@H](O[C@H]3C[C@@](C)(O)[C@@H](OC(=O)CC(C)C)[C@H](C)O3)[C@H](N(C)C)[C@H]2O)[C@@H](CC=O)C[C@@H](C)C(=O)/C=C/C2OC2C[C@@H](C)OC(=O)C[C@H]1OC(C)=O` (some centres undefined) was tested, and the “activity change, negative = inhibition” value was inactive: 4.21%. In the case of `COc1ccc(Oc2ncc3nc(C)c(=O)n(C4CC4)c3n2)cc1`, the “activity change, negative = inhibition” value is reported as inactive: 10.7%. For `N#Cc1cccc(-c2nc3cnc(N4CCOCC4)nc3n(C[C@H]3CCCO3)c2=O)c1`, the “activity change, negative = inhibition” value was inactive: 14.3%. In the case of `CCOC(=O)c1ccccc1O`, the activity change, negative = inhibition is reported as “inactive”. In the case of `COCC(C)NCc1cc2ccc(OC)cc2nc1N1CCN(c2ccc(F)cc2)CC1` (centres undefined), the “activity change, negative = inhibition” value is reported as inactive: 11.7%. In the case of `CN1C(=O)CC[C@H]1c1cccnc1`, the activity change, negative = inhibition is reported as “inactive”. For `CC(C)N1CCN(c2ccc(OC[C@H]3CO[C@](Cn4cncn4)(c4ccc(Cl)cc4Cl)O3)cc2)CC1`, the “activity change, negative = inhibition” value was inactive: 17% [at 75.8 µM]. `COC(=O)C[C@H]1c2ccccc2S(=O)(=O)N1c1ccc(N(C)C)cc1` was tested, and the “activity change, negative = inhibition” value was inactive: -2.08%. `CC[C@@]1(O)C[C@H](O[C@H]2C[C@H](N(C)C)[C@H](O[C@H]3C[C@H](O)[C@H](O[C@H]4CCC(=O)[C@H](C)O4)[C@H](C)O3)[C@H](C)O2)c2c(cc3c(c2O)C(=O)c2c(O)cccc2C3=O)[C@H]1C(=O)OC` was tested, and the “activity change, negative = inhibition” value was inactive: 2.46%. With `Cc1ccc(O)c(C(CCN(C(C)C)C(C)C)c2ccccc2)c1` (centres undefined) the “activity change, negative = inhibition” value was inactive: 16%. For `COc1ccc(C(=O)C2C3C4COC(O4)C(=O)C3C3C=Cc4ccccc4N32)c(OC)c1` (centres undefined), the “activity change, negative = inhibition” value was inactive: -8.96%. In the case of `Cc1nc2cnc(N3CCNCC3)nc2n(CCC#N)c1=O`, the “activity change, negative = inhibition” value is reported as inactive: 21.3%. In the case of `CCC(C)(Oc1ccc(C2(c3ccc(OC(C)(CC)C(=O)O)cc3)CCCCC2)cc1)C(=O)O` (centres undefined), the “activity change, negative = inhibition” value is reported as inactive: 15.4%. With `COc1ccccc1CNc1ncncc1-c1ccccc1C(F)(F)F` the “activity change, negative = inhibition” value was inactive: -7.14%. With `OCC1NCC(O)C(O)C1O` (centres undefined) the “activity change, negative = inhibition” value was inactive: 1.69% [at 75.8 µM]. With `CCn1c(-c2ccccc2F)nc2cc(NC(C)=O)cc(C(=O)N(C)Cc3ccc4nccnc4c3)c21` the “activity change, negative = inhibition” value was inactive: -3.33%. For `COC(=O)c1c(OCc2ccc(F)cc2)cc(=O)n2c1CCN(Cc1ccc3cccnc3c1)CC2`, the “activity change, negative = inhibition” value was inactive: 9.15%. `CN(C)C(=O)c1ccc(-c2nccc(Nc3ccc(F)cc3)n2)cc1` was tested, and the “activity change, negative = inhibition” value was inactive: 3.19%. In the case of `O=C(NNCS(=O)(=O)O)c1ccncc1`, the “activity change, negative = inhibition” value is reported as inactive: 458%. In the case of `CCn1c(=O)[nH]c2cc(Cl)c(Cl)cc21`, the activity change, negative = inhibition is reported as “inactive”. With `C[C@@H]1CN(Cc2ccc3c(c2)CN(Cc2cccn2-c2ccccn2)CCO3)C[C@H](C)O1` the “activity change, negative = inhibition” value was inactive: 18.6%. In the case of `Nc1ncnc2c1ncn2[C@H]1O[C@H](CO)[C@@H](O)[C@@H]1O`, the “activity change, negative = inhibition” value is reported as inactive: 6.48%. In the case of `CC(C)[C@@H]1CC[C@@H](C)C[C@H]1OC(=O)c1ccccc1O`, the “activity change, negative = inhibition” value is reported as inactive: 10.8%. With `COCc1c(C(=O)N2CCN(C3CCCCC3)CC2)cnn1-c1ncc(C)c(-c2cccs2)n1` the “activity change, negative = inhibition” value was inactive: 10.3%. In the case of `O=C(c1ccncc1)N1CCC2(CC1)CN(C(c1ccccc1)c1ccccc1)C2`, the “activity change, negative = inhibition” value is reported as inactive: 16.1%. `COc1ccc(Cl)cc1N=Nc1ncc[nH]1` was tested, and the activity change, negative = inhibition was “inactive”. For `Cc1c(-c2ccc(O)cc2)nn(-c2ccc(O)cc2)c1-c1ccc(OCCN2CCCCC2)cc1`, the “activity change, negative = inhibition” value was inactive: -26.4%. For `CCCCCCCCCC(=O)N[C@H](CN1CCOCC1)[C@H](O)c1ccccc1`, the activity change, negative = inhibition was inactive: 8.09% [at 15.3 µM]. In the case of `CN1[C@@H]2CC[C@H]1CC(OC(=O)C(O)c1ccccc1)C2` (some centres undefined), the activity change, negative = inhibition is reported as “inactive”. In the case of `CC/C=C\C/C=C\C/C=C\CCCCCCCCCCCC(=O)O`, the activity change, negative = inhibition is reported as inactive: 7.32% [at 15.3 µM]. `O=C(c1ccncc1)N1CCC2(CCN(Cc3ccncc3)CC2)CC1` was tested, and the “activity change, negative = inhibition” value was inactive: 8.44%. `CO/N=C(\C(=O)N[C@@H]1C(=O)N2C(C(=O)[O-])=C(C[n+]3cccc4c3CCC4)CS[C@H]12)c1csc(N)n1` was tested, and the “activity change, negative = inhibition” value was inactive: -26.8%. In the case of `CCCCCCCC/C=C\CCCCCCCC(N)=O`, the activity change, negative = inhibition is reported as “inactive”. With `COc1ccccc1N1CCN(CCCCNC(=O)c2ccc(-c3ccc(C(C)=O)cc3)cc2)CC1` the activity change, negative = inhibition was “inactive”. For `CC(O)(COc1ccccc1)c1ccc2c(c1)CN(Cc1cccc3cccnc13)CCO2` (centres undefined), the “activity change, negative = inhibition” value was inactive: -7.35%. `NC(=O)CCCCC1CCSS1` (centres undefined) was tested, and the “activity change, negative = inhibition” value was inactive: 18.1%. In the case of `CC(Oc1ccccc1)C(=O)N[C@@H]1C(=O)N2C(C(=O)O)C(C)(C)S[C@H]12` (some centres undefined), the “activity change, negative = inhibition” value is reported as inactive: 9.13%. With `CC(C)NC[C@@H](O)COc1ccc(CC(N)=O)cc1` the “activity change, negative = inhibition” value was inactive: 13.9%. For `CCNc1ncc2nc(-c3ccccc3)c(=O)n(CCC#N)c2n1`, the “activity change, negative = inhibition” value was inactive: 26.1%. In the case of `NS(=O)(=O)c1cc2c(cc1C(F)(F)F)NCNS2(=O)=O`, the activity change, negative = inhibition is reported as “inactive”. With `C=C1/C(=C\C=C2/CCC[C@]3(C)[C@@H]([C@H](C)OCCC(C)(C)O)CC[C@@H]23)C[C@@H](O)C[C@@H]1O` the “activity change, negative = inhibition” value was inactive: -4.66%. For `COC1(C2=NCCN2)COc2ccccc2O1` (centres undefined), the “activity change, negative = inhibition” value was inactive: 17.4% [at 75.8 µM]. In the case of `O=C(C[n+]1ccccc1)c1cccc([N+](=O)[O-])c1`, the “activity change, negative = inhibition” value is reported as inactive: 22.2%. For `CC(O)Cn1cnc2c1c(=O)n(C)c(=O)n2C` (centres undefined), the “activity change, negative = inhibition” value was inactive: 12.4% [at 75.8 µM]. `Cc1cnc(CNc2ccnc(-c3ccc(N(C)C)cc3)n2)cn1` was tested, and the “activity change, negative = inhibition” value was inactive: 22.5%. With `NCCCC[C@H](N)C(=O)O` the “activity change, negative = inhibition” value was inactive: 16.3%. In the case of `COc1ncc2nc(-c3cccs3)c(=O)n(Cc3ccc(F)cc3)c2n1`, the “activity change, negative = inhibition” value is reported as inactive: -18.1%. In the case of `Cc1ccccc1-c1nc(NC2CCNCC2)c2ccccc2n1`, the “activity change, negative = inhibition” value is reported as inactive: 29.9%. For `COc1cccc(Cn2c(=O)c(-c3cn(C)c4ccccc34)nc3cnc(OC)nc32)c1`, the “activity change, negative = inhibition” value was inactive: 15.8%. For `Nc1cc(=O)[nH]c(N)n1`, the activity change, negative = inhibition was “inactive”. With `O=C(OOC(=O)c1ccccc1)c1ccccc1` the “activity change, negative = inhibition” value was inactive: 17.1%. In the case of `N[C@@H](Cc1c[nH]c2ccccc12)C(=O)O`, the “activity change, negative = inhibition” value is reported as inactive: -10.1% [at 75.8 µM]. For `O=C(O)c1nc(=O)[nH]c(=O)[nH]1`, the “activity change, negative = inhibition” value was inactive: 1.18%. In the case of `Oc1ccc(Cl)cc1CN1CCOc2c(O)cc(-c3nc4ccccc4s3)cc2C1`, the “activity change, negative = inhibition” value is reported as inactive: -0.949%.

Source: PubChem BioAssay AID1645882 (National Center for Advancing Translational Sciences (NCATS), 2021)
Further: nearly all actives have a fitted effect of over 75% in size.
Potency means the concentration at half of the fitted maximal effect.
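Wherever activity change, negative = inhibition is given: plate controls were DMSO for no effect and ATA control for full effect.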
